This is an account of results in patent publication US20250051434A1 (Merck Sharp & Dohme, published 2025).

Common to all, as to assay: cell-based or functional assay
The target of assay [1] is T1, human IL-12 receptor (IL-12R) (human, UniProt P42701 24-662; Q99665 24-862).
In assay [2] the target is T1, human IL-12 receptor (IL-12R). The source holds these as a separate data set.
For assay [3], the target named is rhesus monkey IL-12 receptor (rhesus monkey).

T1 sequence (Q99665 24-862, chain 2 of 2, other chains not shown): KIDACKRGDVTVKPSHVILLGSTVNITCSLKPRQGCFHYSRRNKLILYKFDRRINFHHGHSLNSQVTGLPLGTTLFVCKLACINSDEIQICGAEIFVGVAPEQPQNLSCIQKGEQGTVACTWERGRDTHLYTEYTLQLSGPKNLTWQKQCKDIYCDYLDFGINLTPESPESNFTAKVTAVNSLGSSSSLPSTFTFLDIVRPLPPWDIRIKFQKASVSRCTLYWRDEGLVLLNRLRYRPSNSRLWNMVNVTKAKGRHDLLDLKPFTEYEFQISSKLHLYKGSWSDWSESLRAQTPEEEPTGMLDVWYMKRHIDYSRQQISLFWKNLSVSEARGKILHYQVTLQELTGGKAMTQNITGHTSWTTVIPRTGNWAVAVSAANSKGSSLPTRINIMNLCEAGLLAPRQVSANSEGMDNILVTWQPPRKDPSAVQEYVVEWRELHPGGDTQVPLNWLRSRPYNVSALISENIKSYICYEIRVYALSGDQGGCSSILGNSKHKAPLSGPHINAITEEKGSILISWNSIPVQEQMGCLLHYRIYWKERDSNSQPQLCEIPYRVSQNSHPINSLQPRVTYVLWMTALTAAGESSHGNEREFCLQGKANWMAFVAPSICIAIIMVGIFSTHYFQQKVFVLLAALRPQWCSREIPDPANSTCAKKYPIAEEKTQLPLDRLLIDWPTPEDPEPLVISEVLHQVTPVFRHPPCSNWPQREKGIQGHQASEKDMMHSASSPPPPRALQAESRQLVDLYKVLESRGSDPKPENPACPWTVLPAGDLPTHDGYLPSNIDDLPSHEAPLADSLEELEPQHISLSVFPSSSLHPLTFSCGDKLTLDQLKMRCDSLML

B1: IL-12-Fc-41 (Fc fusion)
chain 1: TPDPGMFPCLHHSQNLLRAVSNMLQKARQTLEFYPCTSEEIDHEDITKDKTSTVEACLPLELTKNESCLNSRETSFITNGSCLASRKTSFMMALCLSSIYEDLKMYQVEFKTMNAKLLMDPKRQIFLDQNMLAVIDELMQALNFNSETVPQKSSLEEPDFTKTKIKLCILLHAFRIRAVTIDRVMSYLNASGGGGSGGGGSGGGGS[skipping human IgG1 Fc with L234A L235A D265S S354C T366W (EU numbers)]
chain 2: IWELKKDVYVVELDWYPDAPGEMVVLTCDTPEEDGITWTLDQSSEVLGSGKTLTIQVKEFGDAGQYTCHKGGEVLSHSLLLLHKKELGIWSTDILKDQKEPKNKTFLRCEAKNYSGRFTCWWLTTISTDLTFSVKSSRGSSDPQGVTCGAATLSAERVRGDNKEYEYSVECQEDSACPAAEESLPIEVMVDAVHKLKYENYTSSFFIRDIIKPDPPKNLQLKPLKNSRQVEVSWEYPDTWSTPHSYFSLTFCVQVQGKSKREKKDRVFTDKTSATVICRKNASISVRAQDRYYSSSWSEWASVPCSGGGGDKTHTCPPCPAPEAAGGPSVFLFPPKPKDTLMISRTPEVTCVVVSVSHEDPEVKFNWYVDGVEVHNAKTKPREEQYNSTYRVVSVLTVLHQDWLNGKEYKCKVSNKALPAPIEKTISKAKGQPREPQVCTLPPSRDELTKNQVSLSCAVKGFYPSDIAVEWESNGQPENNYKTTPPVLDSDGSFFLVSKLTVDKSRWQQGNVFSCSVMHEALHNHYTQKSLSLSPGK
With B1, in assay [1], the “HEK Reporter Median EC50 values (ng/mL) (n = 3)” value (“HEK Reporter Median EC50 values” below) is 3640 ng/mL and the “Human PBMC Median EC50 values (ng/ml); IFNγ release from activated human PBMC in vitro (n = 8)” value came out at 2850 ng/mL. Moreover, the “Mean Fold Reduction (potency vs IL-12 WT by EC50; HEK-Blue IL-12 STAT4/SEAP reporter)” value in assay [2] is 80 fold.

B2: IL-12-Fc-53 (Fc fusion)
chain 1: TPDPGMFPCLHHSQNLLRAVSNMLQKARQTLEFYPCTSEEIDHEDITKDKTSTVEACLPLELTKNESCLNSRETSFITNGSCLASRKTSFMMALCLSSIYEDLKMYQVEFKTMNAKLLMDPKRQIFLDQNMLAVIDELMQALNFNSETVPQKSSLEEPRFYKTKIKLCILLHAFRIRAVTIDRVMSYLNASGGGGSGGGGSGGGGS[skipping human IgG1 Fc with L234A L235A D265S S354C T366W (EU numbers)]
chain 2: IWELKKDVYVVELDWYPDAPGEMVVLTCDTPEEDGITWTLDQSSEVLGSGKTLTIQVKEFGDAGQYTCHKGGEVLSHSLLLLHKKEDGIWSTDILKDQKEPKNDTFLRCEAKNYSGRFTCWWLTTISTDLTFSVKSSRGSSDPQGVTCGAATLSAERVRGDNKEYEYSVECQEDSACPAAEESLPIEVMVDAVHKLKYENYTSSFFIRDIIKPDPPKNLQLKPLKNSRQVEVSWEYPDTWSTPHSYFSLTFCVQVQGKSKREKKDRVFTDKTSATVICRKNASISVRAQDRYYSSSWSEWASVPCSGGGGDKTHTCPPCPAPEAAGGPSVFLFPPKPKDTLMISRTPEVTCVVVSVSHEDPEVKFNWYVDGVEVHNAKTKPREEQYNSTYRVVSVLTVLHQDWLNGKEYKCKVSNKALPAPIEKTISKAKGQPREPQVCTLPPSRDELTKNQVSLSCAVKGFYPSDIAVEWESNGQPENNYKTTPPVLDSDGSFFLVSKLTVDKSRWQQGNVFSCSVMHEALHNHYTQKSLSLSPGK
In the case of B2, in assay [2], the “Mean Fold Reduction (potency vs IL-12 WT by EC50; HEK-Blue IL-12 STAT4/SEAP reporter)” value amounted to 2 fold.

B3: IL-12-Fc-60 (Fc fusion)
chain 1: TPDPGMFPCLHHSQNLLRAVSNMLQKARQTLEFYPCTSEEIDHEDITKDKTSTVEACLPLELTKNESCLNSRETSFITNGSCLASRKTSFMMALCLSSIYEDLKMYQVEFKTMNAKLLMDPKRQIFLDQNMLAVIDELMQALNFNSETVPQKSSLEEPKFTKTKIKLCILLHAFRIRAVTIDRVMSYLNASGGGGSGGGGSGGGGS[skipping human IgG1 Fc with L234A L235A D265S S354C T366W (EU numbers)]
chain 2: IWELKKDVYVVELDWYPDAPGEMVVLTCDTPEEDGITWTLDQSSEVLGSGKTLTIQVKEFGDAGQYTCHKGGEVLSHSLLLLHKKELGIWSTDILKDQKEPKNDTFLRCEAKNYSGRFTCWWLTTISTDLTFSVKSSRGSSDPQGVTCGAATLSAERVRGDNKEYEYSVECQEDSACPAAEESLPIEVMVDAVHKLKYENYTSSFFIRDIIKPDPPKNLQLKPLKNSRQVEVSWEYPDTWSTPHSYFSLTFCVQVQGKSKREKKDRVFTDKTSATVICRKNASISVRAQDRYYSSSWSEWASVPCSGGGGDKTHTCPPCPAPEAAGGPSVFLFPPKPKDTLMISRTPEVTCVVVSVSHEDPEVKFNWYVDGVEVHNAKTKPREEQYNSTYRVVSVLTVLHQDWLNGKEYKCKVSNKALPAPIEKTISKAKGQPREPQVCTLPPSRDELTKNQVSLSCAVKGFYPSDIAVEWESNGQPENNYKTTPPVLDSDGSFFLVSKLTVDKSRWQQGNVFSCSVMHEALHNHYTQKSLSLSPGK
As to B3, the “HEK Reporter Median EC50 values” value in assay [1] stood at 11700 ng/mL.

B4: IL-12-Fc-52 (Fc fusion)
chain 1: TPDPGMFPCLHHSQNLLRAVSNMLQKARQTLEFYPCTSEEIDHEDITKDKTSTVEACLPLELTKNESCLNSRETSFITNGSCLASRKTSFMMALCLSSIYEDLKMYQVEFKTMNAKLLMDPKRQIFLDQNMLAVIDELMQALNFNSETVPQKSSLEEPKFYKTKIKLCILLHAFRIRAVTIDRVMSYLNASGGGGSGGGGSGGGGS[skipping human IgG1 Fc with L234A L235A D265S S354C T366W (EU numbers)]
chain 2: IWELKKDVYVVELDWYPDAPGEMVVLTCDTPEEDGITWTLDQSSEVLGSGKTLTIQVKEFGDAGQYTCHKGGEVLSHSLLLLHKKEDGIWSTDILKDQKEPKNDTFLRCEAKNYSGRFTCWWLTTISTDLTFSVKSSRGSSDPQGVTCGAATLSAERVRGDNKEYEYSVECQEDSACPAAEESLPIEVMVDAVHKLKYENYTSSFFIRDIIKPDPPKNLQLKPLKNSRQVEVSWEYPDTWSTPHSYFSLTFCVQVQGKSKREKKDRVFTDKTSATVICRKNASISVRAQDRYYSSSWSEWASVPCSGGGGDKTHTCPPCPAPEAAGGPSVFLFPPKPKDTLMISRTPEVTCVVVSVSHEDPEVKFNWYVDGVEVHNAKTKPREEQYNSTYRVVSVLTVLHQDWLNGKEYKCKVSNKALPAPIEKTISKAKGQPREPQVCTLPPSRDELTKNQVSLSCAVKGFYPSDIAVEWESNGQPENNYKTTPPVLDSDGSFFLVSKLTVDKSRWQQGNVFSCSVMHEALHNHYTQKSLSLSPGK
With B4, the “Mean Fold Reduction (potency vs IL-12 WT by EC50; HEK-Blue IL-12 STAT4/SEAP reporter)” value in assay [2] was 2 fold.

B5: IL-12-Fc-wt2 (Fc fusion)
chain 1: TPDPGMFPCLHHSQNLLRAVSNMLQKARQTLEFYPCTSEEIDHEDITKDKTSTVEACLPLELTKNESCLNSRETSFITNGSCLASRKTSFMMALCLSSIYEDLKMYQVEFKTMNAKLLMDPKRQIFLDQNMLAVIDELMQALNFNSETVPQKSSLEEPDFYKTKIKLCILLHAFRIRAVTIDRVMSYLNASGGGGSGGGGSGGGGS[skipping human IgG1 Fc with L234A L235A D265S S354C T366W (EU numbers)]
chain 2: IWELKKDVYVVELDWYPDAPGEMVVLTCDTPEEDGITWTLDQSSEVLGSGKTLTIQVKEFGDAGQYTCHKGGEVLSHSLLLLHKKEDGIWSTDILKDQKEPKNKTFLRCEAKNYSGRFTCWWLTTISTDLTFSVKSSRGSSDPQGVTCGAATLSAERVRGDNKEYEYSVECQEDSACPAAEESLPIEVMVDAVHKLKYENYTSSFFIRDIIKPDPPKNLQLKPLKNSRQVEVSWEYPDTWSTPHSYFSLTFCVQVQGKSKREKKDRVFTDKTSATVICRKNASISVRAQDRYYSSSWSEWASVPCSGGGGDKTHTCPPCPAPEAAGGPSVFLFPPKPKDTLMISRTPEVTCVVVSVSHEDPEVKFNWYVDGVEVHNAKTKPREEQYNSTYRVVSVLTVLHQDWLNGKEYKCKVSNKALPAPIEKTISKAKGQPREPQVCTLPPSRDELTKNQVSLSCAVKGFYPSDIAVEWESNGQPENNYKTTPPVLDSDGSFFLVSKLTVDKSRWQQGNVFSCSVMHEALHNHYTQKSLSLSPGK
As for B5, in assay [1], the “HEK Reporter Median EC50 values” value came out at 1.4 ng/mL and the “Human PBMC Median EC50 values (ng/ml); IFNγ release from activated human PBMC in vitro (n = 8)” value turned out to be 1.4 ng/mL. In assay [3], the “Rhesus PBMC Median EC50 values (ng/ml); IFNγ release from activated rhesus PBMC in vitro (n = 10)” value stood at 0.3 ng/mL.

B6: IL-12-Fc-56 (Fc fusion)
chain 1: TPDPGMFPCLHHSQNLLRAVSNMLQKARQTLEFYPCTSEEIDHEDITKDKTSTVEACLPLELTKNESCLNSRETSFITNGSCLASRKTSFMMALCLSSIYEDLKMYQVEFKTMNAKLLMDPKRQIFLDQNMLAVIDELMQALNFNSETVPQKSSLEEPDFAKTKIKLCILLHAFRIRAVTIDRVMSYLNASGGGGSGGGGSGGGGS[skipping human IgG1 Fc with L234A L235A D265S S354C T366W (EU numbers)]
chain 2: IWELKKDVYVVELDWYPDAPGEMVVLTCDTPEEDGITWTLDQSSEVLGSGKTLTIQVKEFGDAGQYTCHKGGEVLSHSLLLLHKKEDGIWSTDILKDQKEPKNDTFLRCEAKNYSGRFTCWWLTTISTDLTFSVKSSRGSSDPQGVTCGAATLSAERVRGDNKEYEYSVECQEDSACPAAEESLPIEVMVDAVHKLKYENYTSSFFIRDIIKPDPPKNLQLKPLKNSRQVEVSWEYPDTWSTPHSYFSLTFCVQVQGKSKREKKDRVFTDKTSATVICRKNASISVRAQDRYYSSSWSEWASVPCSGGGGDKTHTCPPCPAPEAAGGPSVFLFPPKPKDTLMISRTPEVTCVVVSVSHEDPEVKFNWYVDGVEVHNAKTKPREEQYNSTYRVVSVLTVLHQDWLNGKEYKCKVSNKALPAPIEKTISKAKGQPREPQVCTLPPSRDELTKNQVSLSCAVKGFYPSDIAVEWESNGQPENNYKTTPPVLDSDGSFFLVSKLTVDKSRWQQGNVFSCSVMHEALHNHYTQKSLSLSPGK
Regarding B6, the “Mean Fold Reduction (potency vs IL-12 WT by EC50; HEK-Blue IL-12 STAT4/SEAP reporter)” value in assay [2] is 32 fold.

B7: IL-12-Fc-54 (Fc fusion)
chain 1: TPDPGMFPCLHHSQNLLRAVSNMLQKARQTLEFYPCTSEEIDHEDITKDKTSTVEACLPLELTKNESCLNSRETSFITNGSCLASRKTSFMMALCLSSIYEDLKMYQVEFKTMNAKLLMDPKRQIFLDQNMLAVIDELMQALNFNSETVPQKSSLEEPDFSKTKIKLCILLHAFRIRAVTIDRVMSYLNASGGGGSGGGGSGGGGS[skipping human IgG1 Fc with L234A L235A D265S S354C T366W (EU numbers)]
chain 2: IWELKKDVYVVELDWYPDAPGEMVVLTCDTPEEDGITWTLDQSSEVLGSGKTLTIQVKEFGDAGQYTCHKGGEVLSHSLLLLHKKEDGIWSTDILKDQKEPKNDTFLRCEAKNYSGRFTCWWLTTISTDLTFSVKSSRGSSDPQGVTCGAATLSAERVRGDNKEYEYSVECQEDSACPAAEESLPIEVMVDAVHKLKYENYTSSFFIRDIIKPDPPKNLQLKPLKNSRQVEVSWEYPDTWSTPHSYFSLTFCVQVQGKSKREKKDRVFTDKTSATVICRKNASISVRAQDRYYSSSWSEWASVPCSGGGGDKTHTCPPCPAPEAAGGPSVFLFPPKPKDTLMISRTPEVTCVVVSVSHEDPEVKFNWYVDGVEVHNAKTKPREEQYNSTYRVVSVLTVLHQDWLNGKEYKCKVSNKALPAPIEKTISKAKGQPREPQVCTLPPSRDELTKNQVSLSCAVKGFYPSDIAVEWESNGQPENNYKTTPPVLDSDGSFFLVSKLTVDKSRWQQGNVFSCSVMHEALHNHYTQKSLSLSPGK
For B7, in assay [2], the “Mean Fold Reduction (potency vs IL-12 WT by EC50; HEK-Blue IL-12 STAT4/SEAP reporter)” value is 195 fold.
